Source: PubChem BioAssay AID2546 (National Center for Advancing Translational Sciences (NCATS), 2010)
Screen size: about 310,000 compounds; about 11,000 (3.5%) were called active. Inconclusive results, whose numbers are uncertain, are shown with a selection of clear calls. Calls come from the whole dose curve; as a rule, active = well fitted inhibition curve with a large enough effect; inconclusive = small, poorly fitted or top-dose-only effect, or effect the other way; inactive = flat fitted curve, though single readings scatter. Potencies of inconclusive entries are left out as doubtful fits.

assay: VP16 counterscreen qHTS for inhibitors of ROR gamma transcriptional activity; conditions: Drosophila S2 Gal4-VP16 UAS-luciferase, luminescence, 20 h; series mostly up to 53.6 µM;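 note: Gal4-VP16 expression switched on by copper sulfate through the metallothionein promoter; nearly all actives have a fitted effect of over 50% in size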
Potency is the fitted concentration of half-maximal effect; tags give direction and shape of the fitted curve.

**Q.** For `Cc1cc(S(=O)(=O)NC(C)C)ccc1OCC(=O)N1CCN(Cc2ccc3c(c2)OCO3)CC1`, which Potency is on record?
**A.** active: 7.94 µM

**Q.** For `O=C(Cn1cnc2sc3c(c2c1=O)CCCC3)NCCC(=O)N1CCC2(CC1)OCCO2`, which Potency is on record?
**A.** inactive

**Q.** Which Potency does the source give for `O=C1CN=C(c2ccccc2)c2oc3ccc(Br)cc3c2N1` here?
**A.** inactive

**Q.** Which Potency does the source give for `Cc1cccc(-n2c(O)c(C=Nc3ccc(Br)cn3)c(=O)[nH]c2=O)c1` here?
**A.** inactive

**Q.** Which Potency does the source give for `O=C(CCl)c1ccc(Oc2ccc(C(=O)CCl)cc2)cc1` here?
**A.** inconclusive [inhibitor, single point]

**Q.** With `C[C@]12CCC3C(CC[C@]4(O)CC(O)CC[C@@]34C=O)[C@]1(O)CCC2C1=CC(=O)OC1` (some centres undefined) as the molecule, how does the Potency read?
**A.** inactive

**Q.** With `COc1cc2c(cc1OC)CN(c1ccc([N+](=O)[O-])c(C(F)(F)F)c1)CC2` as the molecule, how does the Potency read?
**A.** inconclusive [inhibitor, single point]

**Q.** For `CCOc1cc(CNCCc2c[nH]c3ccccc23)cc(Cl)c1OCC`, which Potency is on record?
**A.** inconclusive [inhibitor, single point]

**Q.** With `CCCC(=O)O[C@@H]1[C@@H](C)[C@@]2(O)[C@@H](C=C(CO)C[C@@]3(O)C(=O)C(C)=C[C@@H]23)[C@@H]2C(C)(C)[C@]12OC(=O)CCC` as the molecule, how does the Potency read?
**A.** inactive

**Q.** For `CC(=O)c1ccc(-c2ccccc2)cc1`, which Potency is on record?
**A.** inconclusive [activator, single point]

**Q.** Which Potency does the source give for `CCn1nc(-c2cccs2)nc2c(=O)n(C)c(=O)nc1-2` here?
**A.** active: 1.26 µM

**Q.** With `CCCCn1c(O)c(C=NCc2ccc3c(c2)OCO3)c(=O)[nH]c1=O` as the molecule, how does the Potency read?
**A.** inconclusive [inhibitor, single point]

**Q.** For `CCN(CC)C(=O)Cn1cc(/C=C2\C(=O)NC(=O)N(c3ccccc3F)C2=O)c2ccccc21`, which Potency is on record?
**A.** inconclusive [inhibitor, single point]

**Q.** For `CCOC(=O)c1cccc(NS(=O)(=O)c2ccc(NC(C)=O)cc2)c1`, which Potency is on record?
**A.** active: 5.01 µM

**Q.** With `CCOC(=O)N(C)C(=O)CSP(=S)(OCC)OCC` as the molecule, how does the Potency read?
**A.** inactive

**Q.** Which Potency does the source give for `CCOC(=O)C(O)(c1ccc(NC(=S)NC(=O)c2ccc(Cl)cc2Cl)c(C)c1)C(F)(F)F` (centres undefined) here?
**A.** inconclusive [inhibitor, single point]

**Q.** For `CCCCCn1c(=O)c(C(=O)Nc2ccccc2N)c(O)c2ccccc21`, which Potency is on record?
**A.** inconclusive [inhibitor, single point]

**Q.** For `C[C@]12CCC3=C4CCC(=O)C=C4CC[C@H]3C1CC[C@@H]2O` (some centres undefined), which Potency is on record?
**A.** inactive

**Q.** With `O[C@@H](Cc1ccncc1)C(Cl)(Cl)Cl` as the molecule, how does the Potency read?
**A.** inactive

**Q.** With `CCN(CC)C(=O)c1ccc2c(c1)C1C(Cl)C(Sc3ccccc3[N+](=O)[O-])CC1C(C(=O)O)N2` (centres undefined) as the molecule, how does the Potency read?
**A.** inconclusive [inhibitor, partial curve, poor fit]

**Q.** For `O=[N+]([O-])c1ccc(O)c([N+](=O)[O-])c1`, which Potency is on record?
**A.** active: 22.4 µM

**Q.** With `CC(C)(C)C(=O)C1C(=O)c2ccccc2C1=O` as the molecule, how does the Potency read?
**A.** inconclusive [inhibitor, single point]

**Q.** Which Potency does the source give for `CCOC(=O)c1c(/N=C/c2c(O)n(-c3cccc(C)c3)c(=O)[nH]c2=O)sc2c1CCCC2` here?
**A.** inconclusive [activator, single point]

**Q.** For `O=C1CC(N2CCC(n3c(=O)[nH]c4ccccc43)CC2)C(=O)N1Cc1ccccc1` (centres undefined), which Potency is on record?
**A.** inconclusive [inhibitor, single point]

**Q.** With `COc1cccc(/C=N/NC(=O)c2c(C)nc3ccc(Br)cn23)c1` as the molecule, how does the Potency read?
**A.** inconclusive [inhibitor, single point]

**Q.** With `C=CCN1C(=O)c2ccccc2Sc2ccc(C(=O)N3CCC4(CC3)OCCO4)cc21` as the molecule, how does the Potency read?
**A.** inconclusive [inhibitor, single point]

**Q.** For `Oc1ccc(Br)cc1CN1CCN(c2ccccc2)CC1`, which Potency is on record?
**A.** inactive

**Q.** For `COc1ccccc1C(=O)Nc1nnc(-c2ccc(Cl)cc2)o1`, which Potency is on record?
**A.** inconclusive [inhibitor, single point]

**Q.** For `N#CC(C#N)=Cc1ccc([N+](=O)[O-])c(O)c1`, which Potency is on record?
**A.** inconclusive [inhibitor, single point]

**Q.** For `COc1ccc(CCn2c(O)c(C=Nc3ccc(F)cc3)c(=O)[nH]c2=O)cc1OC`, which Potency is on record?
**A.** inconclusive [inhibitor, single point]

**Q.** For `CC(C)Br`, which Potency is on record?
**A.** inactive

**Q.** For `O=C(CCCN1CCC2(CC1)C(=O)N(Cc1cccc(F)c1)CN2c1ccccc1)c1ccc(F)cc1`, which Potency is on record?
**A.** inconclusive [inhibitor, single point]

**Q.** With `CC(C)(C)c1ccc(C(=O)C2CCCN(Cc3ccon3)C2)cc1` (centres undefined) as the molecule, how does the Potency read?
**A.** inconclusive [inhibitor, single point]

**Q.** For `CCC(C)n1c(O)c(/C=N/Nc2ccccc2)c(=O)[nH]c1=S` (centres undefined), which Potency is on record?
**A.** active: 6.31 µM

**Q.** With `COc1cc(-c2ccc(-[n+]3nc(-c4ccccc4)nn3-c3ccc([N+](=O)[O-])cc3)c(OC)c2)ccc1-[n+]1nc(-c2ccccc2)nn1-c1ccc([N+](=O)[O-])cc1` as the molecule, how does the Potency read?
**A.** inconclusive [inhibitor, single point]

**Q.** With `Cc1cc(OC(=O)c2ccco2)c2c3c(c(=O)oc2c1)CCC3` as the molecule, how does the Potency read?
**A.** inconclusive [inhibitor, single point]

**Q.** With `CCN(CC)c1ccc(N=Cc2c(O)[nH]c(=O)[nH]c2=O)cc1` as the molecule, how does the Potency read?
**A.** inconclusive [activator, partial curve, poor fit]

**Q.** For `CCC(=O)OC1CCC2C3CCc4cc(O)ccc4C3CC[C@]12C` (some centres undefined), which Potency is on record?
**A.** inconclusive [inhibitor, single point]

**Q.** With `CCCOc1ccc(C(=O)NC(=S)N2C[C@H]3C[C@H](C2)c2cccc(=O)n2C3)cc1` as the molecule, how does the Potency read?
**A.** inconclusive [inhibitor, single point]

**Q.** For `C[C@@]12CCC3C(CCC4=CC(=O)CC[C@]43C)C1CCC2O` (some centres undefined), which Potency is on record?
**A.** inactive

**Q.** With `COc1cc(C)c(CN2CCN(c3ccccc3)CC2)cc1C` as the molecule, how does the Potency read?
**A.** inactive

**Q.** Which Potency does the source give for `CC(C)CNC(=O)c1c(N)n(Cc2ccco2)c2nc3ccccc3nc12` here?
**A.** inconclusive [inhibitor, single point]

**Q.** For `c1ccc2c(CCNCc3ccc4c(c3)OCO4)c[nH]c2c1`, which Potency is on record?
**A.** inconclusive [inhibitor, single point]

**Q.** For `CCCCCCCCCC[N+](C)(C)CCCCCCCCCC`, which Potency is on record?
**A.** inconclusive [inhibitor, single point]
